The campaign covered roughly 340,000 compounds. About 6,900 (2%) were called active. Rule as the data show it: active = inhibition above about 30%; inactive = below that, where a call was filed. The list shows a part of the results, in another mix than the full data. Where no call is shown, the source filed none.
Each compound was assayed against D(2) dopamine receptor (Homo sapiens) (UniProt P14416) (assay: HTS Assay for Allosteric Antagonists of the Human D2 Dopamine Receptor: Primary Screen for Antagonists). Conditions: HEK293 TREx D2 cells, calcium flux, dopamine EC80; at 10 µM; stronger effect = higher value.
Summary of the method: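 Overnight-induced (tetracycline, 30 C) HEK293 T-REx cells carrying force-coupled D2 receive a no-wash calcium dye, then compound, then EC80 dopamine at 180 s; signals are read kinetically throughout.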
Also: 0% is about no effect.

Sequence of UniProt P14416 (P14416 whole entry, looked up): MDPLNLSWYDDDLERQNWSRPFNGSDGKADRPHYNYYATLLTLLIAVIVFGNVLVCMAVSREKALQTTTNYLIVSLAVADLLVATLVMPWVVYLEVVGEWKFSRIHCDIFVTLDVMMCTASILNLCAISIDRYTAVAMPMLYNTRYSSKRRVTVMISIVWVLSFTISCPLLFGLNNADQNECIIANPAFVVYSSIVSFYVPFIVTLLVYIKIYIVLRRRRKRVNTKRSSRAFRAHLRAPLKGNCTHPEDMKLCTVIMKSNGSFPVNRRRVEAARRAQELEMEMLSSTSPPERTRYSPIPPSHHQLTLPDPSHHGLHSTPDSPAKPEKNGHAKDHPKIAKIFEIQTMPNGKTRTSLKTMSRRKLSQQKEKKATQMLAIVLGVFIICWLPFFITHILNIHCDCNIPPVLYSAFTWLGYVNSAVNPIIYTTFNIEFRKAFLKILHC

Structure (SMILES)	inhibition
COc1cccc(OC)c1OCCCCN1CCC(Cc2ccccc2)CC1	active: 76.3%
Cc1ccc2c(c1)N(CCC(=O)NCc1ccc(F)cc1)C(=O)CO2	-15.3%
CCOCCc1nn2c(=O)cc(COC(=O)CNC(=O)c3ccc(C(C)(C)C)cc3)nc2s1	4.47%
COc1cc(NC(=O)CCc2c(C)nn(-c3ccc4nncn4n3)c2C)cc(OC)c1OC	-23.2%
Cc1ccc(Cl)cc1N1CCN(S(=O)(=O)c2ccc3[nH]c4c(c3c2)CCCCC4)CC1	-5.14%
Fc1ccc(-n2ncc3c(NCCCN4CCOCC4)ncnc32)cc1	-9.73%
CCOC(=O)c1c(NC(=O)CSc2cn(CCNC(=O)c3ccccc3F)c3ccccc23)sc2c1CCC2	7.96%
COc1cc(-c2nnc(SCCOc3ccc(Cl)cc3C)o2)cc(OC)c1OC	1.1%
COC(=O)c1cc(S(=O)(=O)NCC2CCN(Cc3ccc(F)cc3)CC2)cn1C	-8.53%
CCCSc1ncc(Cl)c(C(=O)Nc2ccc(S(=O)(=O)Nc3ncccn3)cc2)n1	-21%
COc1ccc(NC(=O)CSc2ncc3c(n2)-c2cc(Cl)ccc2N(Cc2ccccc2F)S3(=O)=O)cc1	10.3%
Cc1cc(C)c2c(=O)cc(C(=O)Nc3sc4c(c3C(=O)NCc3ccccc3)CCCC4)oc2c1	-7.12%
COc1cc(Br)c(CCNC(=O)c2ccco2)cc1OC	active: 36.5%
Cc1cccc(CSc2ncc(CO)n2Cc2ccc(F)cc2)c1	4.01%
O=C(Nc1ccc2oc(-c3ccccc3F)nc2c1)c1ccccc1Cl	-12.5%
O=C(Nc1ccc(Cl)cc1)c1nc[nH]c1C(=O)N1CCc2ccccc2C1	active: 50.9%
COc1cccc2c1OC1(C)CC2/C(=C(\C)O)C(=O)N1 (stereo unspecified)	active: 51.3%
Cc1ccc2c(c1)-c1nc(-c3ccc(Cl)cc3)cc(-c3coc4ccccc4c3=O)c1CO2	10.7%
CCN(C(=O)COC(=O)CCc1ccc(OC)cc1)c1c(N)n(Cc2ccccc2)c(=O)[nH]c1=O	active: 33.8%
CN1CCN(C(CNC(=O)c2cccc(F)c2)c2ccc3c(c2)OCO3)CC1 (stereo unspecified)	-6.15%
CCOc1ccc(-n2c(Cc3ccccc3)nnc2SCc2nc(-c3ccccc3OC)no2)cc1	11.1%
Cc1cc(C)c(NC(=O)C2CCN(c3nc4ccccc4[nH]3)CC2)c(C)c1	-22.5%
C=CCNCCCCOc1ccccc1-c1ccccc1	active: 49.2%
CC(C)CCNC(=O)CCCN1C(=O)c2ccccc2Sc2ncccc21	2.32%
COc1cc(-c2noc(CN3CCN(c4ccccc4)CC3)n2)cc(OC)c1OC	-14.2%
COc1ccccc1-c1nc2c(c(SCc3cccc(Cl)c3)n1)Cc1c(CO)cnc(C)c1O2	-17.9%

From PubChem BioAssay AID485344 (National Center for Advancing Translational Sciences (NCATS), 2010)
